# Test results published in the BET-seq Pho4 binding data (Le et al. 2018).
# The list shows a part of the results. These are noisy estimates, calculated here from bound and input reads.
# Target: T1, Pho4 (S. cerevisiae) (UniProt P07270)
# T1 sequence: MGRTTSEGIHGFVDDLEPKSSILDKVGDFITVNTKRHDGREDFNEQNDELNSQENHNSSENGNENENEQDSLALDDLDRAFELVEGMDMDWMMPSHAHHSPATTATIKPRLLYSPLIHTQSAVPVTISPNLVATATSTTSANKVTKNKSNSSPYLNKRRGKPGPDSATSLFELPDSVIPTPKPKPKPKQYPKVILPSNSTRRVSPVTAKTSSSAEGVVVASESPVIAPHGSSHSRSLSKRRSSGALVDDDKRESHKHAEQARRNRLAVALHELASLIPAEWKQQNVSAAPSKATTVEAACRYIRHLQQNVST
# Experiment: relative binding free energy (BET-seq); higher = weaker binding
# Details: reference: library average
row,Sequence,relative binding free energy [kcal/mol]
1,GTTAGCACGTGCGTTG,-0.02
2,GAAGCCACGTGTGTTG,0.05
3,TGTCGCACGTGATGAA,0.37
4,CGTTTCACGTGAGCTG,0.47
5,GTGGGCACGTGGGTCG,-0.16
6,GGGTGCACGTGACGTC,0.15
7,GTGGGCACGTGATATT,0.13
8,GGTTGCACGTGATCGT,0.1
9,CCTTTCACGTGTTTTT,0.14
10,CGGGTCACGTGCTGGT,0.11
11,GTGAACACGTGGGGGC,-0.08
12,TGGATCACGTGATTTT,0.28
13,TGTGTCACGTGTGAAG,0.21
14,TATAGCACGTGGGCGA,-0.17
15,TTTCGCACGTGCTTGT,-0.08
16,GGTGGCACGTGTCAAG,-0.12
17,GAGATCACGTGCTGGG,0.24
18,TGGCGCACGTGGCGGG,-0.18
19,AGCCTCACGTGTTGGG,0.16

row,Sequence,relative binding free energy [kcal/mol]
1,GGACGCACGTGTTTTT,-0.02
2,TGAGCCACGTGTGGGG,0.06
3,ATAAACACGTGTTGTT,-0.1
4,AAAGTCACGTGTGTTG,0.17
5,GTGAACACGTGGGTGT,-0.07
6,TTGTCCACGTGGAGTT,0.06
7,AAATGCACGTGGGGAG,-0.15
8,TAGTTCACGTGAGAGT,0.55
9,ACGTGCACGTGGGATG,-0.13
10,TGTTTCACGTGTACGA,0.25
11,ATTTTCACGTGTCTTA,0.27
12,GGGTTCACGTGACAAG,0.49
13,TTGTACACGTGGGCCT,-0.04
14,CTGCTCACGTGGTTGG,0.13
15,GTATTCACGTGTTCGG,0.27
16,GGATGCACGTGGTATA,-0.03
17,GTGTTCACGTGGTCTC,0.21
18,ATTTGCACGTGAGGTG,0.15
19,AGGTACACGTGTGTCG,-0.04

row,Sequence,relative binding free energy [kcal/mol]
1,GGTTGCACGTGGCGCC,0.05
2,AATGGCACGTGCGAAG,0.05
3,GAATGCACGTGTTGCT,0.09
4,GTTTACACGTGTTAGT,0.26
5,TGGAGCACGTGGGCCG,-0.21
6,TTATCCACGTGGGATT,0.03
7,TGGATCACGTGCGGGG,0.05
8,CAATTCACGTGTAGGT,0.26
9,TAATTCACGTGGTACG,0.24
10,ATCGGCACGTGAAGTT,0.17
11,GGGTTCACGTGGTAAA,0.28
12,CGCGGCACGTGGGTGC,-0.34
13,AATAACACGTGTGTGG,-0.1
14,CATTGCACGTGGGATT,-0.08
15,TACTGCACGTGTGGAG,0.07
16,GTCTGCACGTGTATGG,0.18
17,CAGTGCACGTGTTATG,0.08
18,GTTGTCACGTGAGTCA,0.29
19,AGGATCACGTGGGGCG,0.03
